# The list shows a part of the results.
# How the values were obtained:
# Assay in all cases: glycan array binding signal (z-score within array); higher = stronger binding
# Settings in all cases: glycan notation: IUPAC condensed, linker removed
# [1] = biological target: Man(a1-2)Man(a1-6)[Man(a1-3)]Man(a1-6)[Man(a1-2)Man(a1-2)Man(a1-3)]Man(b1-4)GlcNAc(b1-4)GlcNAc
# In short: (§1)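 The binding signal is a Z-score computed within each array and averaged over linkers. Arrays of the same protein sequence at different concentrations or buffers were also averaged together. Data originate from 3228 arrays in the Consortium for Functional Glycomics database, kept only where the protein sequence was available.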
# Man(a1-3)[Man(a1-6)]Man = biological target: Man(a1-3)[Man(a1-6)]Man
# In short: as §1
# [2] = biological target: Man(a1-3)[Man(a1-6)]Man(a1-6)[Man(a1-2)Man(a1-3)]Man(b1-4)GlcNAc(b1-4)GlcNAc
# In short: as §1
# [3] = biological target: Man(a1-3)[Man(a1-6)]Man(a1-6)[Man(a1-3)]Man
# In short: as §1
# [4] = biological target: Man(a1-3)[Man(a1-6)]Man(a1-6)[Man(a1-3)]Man(b1-4)GlcNAc(b1-4)GlcNAc
# In short: as §1
# [5] = biological target: Man(a1-3)[Man(a1-6)]Man(b1-4)GlcNAc(b1-4)GlcNAc
# In short: as §1
# Man(a1-6)Man = biological target: Man(a1-6)Man
# In short: as §1
# Man(b1-4)GlcNAc = biological target: Man(b1-4)GlcNAc
# In short: as §1
# Neu5Ac(a2-3)Gal = biological target: Neu5Ac(a2-3)Gal
# In short: as §1
# [6] = biological target: Neu5Ac(a2-3)Gal(b1-3)GalNAc
# In short: as §1
# [7] = biological target: Neu5Ac(a2-3)Gal(b1-3)GalNAc(b1-3)Gal(a1-4)Gal(b1-4)Glc
# In short: as §1
# [8] = biological target: Neu5Ac(a2-3)Gal(b1-3)GalNAc(b1-4)[Neu5Ac(a2-3)]Gal(b1-4)Glc
# In short: as §1
# [9] = biological target: Neu5Ac(a2-3)Gal(b1-3)GalNAc6S
# In short: as §1
# [10] = biological target: Neu5Ac(a2-3)Gal(b1-3)GlcNAc
# In short: as §1
# [11] = biological target: Neu5Ac(a2-3)Gal(b1-3)GlcNAc(b1-2)Man(a1-3)[Neu5Ac(a2-3)Gal(b1-3)GlcNAc(b1-2)Man(a1-6)]Man(b1-4)GlcNAc(b1-4)GlcNAc
# In short: as §1
# [12] = biological target: Neu5Ac(a2-3)Gal(b1-3)GlcNAc(b1-3)Gal(b1-3)GlcNAc
# In short: as §1
# [13] = biological target: Neu5Ac(a2-3)Gal(b1-3)GlcNAc(b1-3)Gal(b1-4)GlcNAc
# In short: as §1
# [14] = biological target: Neu5Ac(a2-3)Gal(b1-3)GlcNAc(b1-3)GalNAc
# In short: as §1
# [15] = biological target: Neu5Ac(a2-3)Gal(b1-3)GlcNAc6S
# In short: as §1
# [16] = biological target: Neu5Ac(a2-3)Gal(b1-3)[Fuc(a1-4)]GlcNAc
# In short: as §1
# [17] = biological target: Neu5Ac(a2-3)Gal(b1-3)[Fuc(a1-4)]GlcNAc(b1-3)Gal(b1-3)[Fuc(a1-4)]GlcNAc
# In short: as §1
# [18] = biological target: Neu5Ac(a2-3)Gal(b1-3)[Fuc(a1-4)]GlcNAc(b1-3)Gal(b1-4)[Fuc(a1-3)]GlcNAc
# In short: as §1
# [19] = biological target: Neu5Ac(a2-3)Gal(b1-3)[Neu5Ac(a2-3)Gal(b1-4)]GlcNAc
# In short: as §1
# [20] = biological target: Neu5Ac(a2-3)Gal(b1-3)[Neu5Ac(a2-6)]GalNAc
# In short: as §1
# Neu5Ac(a2-3)Gal(b1-4)Glc = biological target: Neu5Ac(a2-3)Gal(b1-4)Glc
# In short: as §1
# [21] = biological target: Neu5Ac(a2-3)Gal(b1-4)GlcNAc
# In short: as §1
# [22] = biological target: Neu5Ac(a2-3)Gal(b1-4)GlcNAc(b1-2)Man(a1-3)[GlcNAc(b1-2)Man(b1-4)GlcNAc(b1-2)Man(a1-6)]Man(b1-4)GlcNAc(b1-4)GlcNAc
# In short: as §1
# [23] = biological target: Neu5Ac(a2-3)Gal(b1-4)GlcNAc(b1-2)Man(a1-3)[Neu5Ac(a2-6)Gal(b1-4)GlcNAc(b1-2)Man(a1-6)]Man(b1-4)GlcNAc(b1-4)GlcNAc
# In short: as §1
# [24] = biological target: Neu5Ac(a2-3)Gal(b1-4)GlcNAc(b1-3)Gal(b1-3)GlcNAc
# In short: as §1
# [25] = biological target: Neu5Ac(a2-3)Gal(b1-4)GlcNAc(b1-3)Gal(b1-4)GlcNAc
# In short: as §1
# [26] = biological target: Neu5Ac(a2-3)Gal(b1-4)GlcNAc(b1-3)Gal(b1-4)GlcNAc(b1-3)Gal(b1-4)GlcNAc
# In short: as §1
# [27] = biological target: Neu5Ac(a2-3)Gal(b1-4)GlcNAc(b1-3)Gal(b1-4)[Fuc(a1-3)]GlcNAc
# In short: as §1
# [28] = biological target: Neu5Ac(a2-3)Gal(b1-4)GlcNAc(b1-3)GalNAc
# In short: as §1
# [29] = biological target: Neu5Ac(a2-3)Gal(b1-4)GlcNAc(b1-6)[Gal(b1-3)]GalNAc
# In short: as §1
# [30] = biological target: Neu5Ac(a2-3)Gal(b1-4)GlcNAc(b1-6)[Neu5Ac(a2-3)Gal(b1-3)]GalNAc
# In short: as §1
# [31] = biological target: Neu5Ac(a2-3)Gal(b1-4)GlcNAc6S
# In short: as §1
# [32] = biological target: Neu5Ac(a2-3)Gal(b1-4)[Fuc(a1-3)]GlcNAc
# In short: as §1
# [33] = biological target: Neu5Ac(a2-3)Gal(b1-4)[Fuc(a1-3)]GlcNAc(b1-3)Gal
# In short: as §1
# [34] = biological target: Neu5Ac(a2-3)Gal(b1-4)[Fuc(a1-3)]GlcNAc(b1-3)Gal(b1-4)GlcNAc
# In short: as §1
# [35] = biological target: Neu5Ac(a2-3)Gal(b1-4)[Fuc(a1-3)]GlcNAc(b1-3)Gal(b1-4)[Fuc(a1-3)]GlcNAc(b1-3)Gal(b1-4)[Fuc(a1-3)]GlcNAc
# In short: as §1
# [36] = biological target: Neu5Ac(a2-3)Gal(b1-4)[Fuc(a1-3)]GlcNAc(b1-3)GalNAc
# In short: as §1
# [37] = biological target: Neu5Ac(a2-3)Gal(b1-4)[Fuc(a1-3)]GlcNAc(b1-6)[Gal(b1-3)]GalNAc
# In short: as §1
# [38] = biological target: Neu5Ac(a2-3)Gal(b1-4)[Fuc(a1-3)]GlcNAc(b1-6)[Neu5Ac(a2-3)Gal(b1-3)]GalNAc
# In short: as §1
# [39] = biological target: Neu5Ac(a2-3)Gal(b1-4)[Fuc(a1-3)]GlcNAc6S
# In short: as §1
# [40] = biological target: Neu5Ac(a2-3)Gal6S(b1-4)GlcNAc
# In short: as §1
binder,measurement,setting,value
"Lmo1413 (Listeria monocytogenes), Q8Y783 (protein) MKHAKKSLFTFIIFMTILSITFNPFSAKAAPLMLNLPAPQVDQLYIGDDYITGKLQQEVPMHYPGNAAYVLFNNKQYNITDYTVENDVNFRLKLPKTLEAGDTLNYFTITGNVLDPVAYPGQESYKLAGPFSPIEKANIQVNYVDETNQTLATSDTLSGKLGETYTTSPKAIDGYQVKETPTNATGTYTTNTETIQINYVYEKTAVEGANVSVEYINEATNESIAPTETLSGKIGTTFQAEVKEIDGYELSQVPSNQSGTYTDQTQSVIFKYKKITTPDEVAKDVTVTYKDTKGNQLADPVILKGDIGSTFETEAKSFKGYKLTKTPSNHSSVFTSDSQEVEYVYSKDDAVITPPVTPVNPDKPIINPVKPVNPATSTVPNKNISKKNTTKTVNQTGKTSTALQLPKTGDSENNLPLIIGVSLLISGVYIFTTRRKRVK",glycan array binding signal (z-score),[1],-0.262
same,glycan array binding signal (z-score),Man(a1-3)[Man(a1-6)]Man,-0.238
same,glycan array binding signal (z-score),[2],-0.226
same,glycan array binding signal (z-score),[3],-0.212
same,glycan array binding signal (z-score),[4],-0.251
same,glycan array binding signal (z-score),[5],-0.231
same,glycan array binding signal (z-score),Man(a1-6)Man,-0.138
same,glycan array binding signal (z-score),Man(b1-4)GlcNAc,-0.026
same,glycan array binding signal (z-score),Neu5Ac(a2-3)Gal,-0.235
same,glycan array binding signal (z-score),[6],-0.223
same,glycan array binding signal (z-score),[7],-0.257
same,glycan array binding signal (z-score),[8],-0.26
same,glycan array binding signal (z-score),[9],-0.27
same,glycan array binding signal (z-score),[10],-0.137
same,glycan array binding signal (z-score),[11],-0.239
same,glycan array binding signal (z-score),[12],-0.026
same,glycan array binding signal (z-score),[13],-0.224
same,glycan array binding signal (z-score),[14],-0.215
same,glycan array binding signal (z-score),[15],-0.152
same,glycan array binding signal (z-score),[16],-0.272
same,glycan array binding signal (z-score),[17],0.433
same,glycan array binding signal (z-score),[18],0.39
same,glycan array binding signal (z-score),[19],-0.256
same,glycan array binding signal (z-score),[20],-0.143
same,glycan array binding signal (z-score),Neu5Ac(a2-3)Gal(b1-4)Glc,-0.223
same,glycan array binding signal (z-score),[21],-0.234
same,glycan array binding signal (z-score),[22],-0.266
same,glycan array binding signal (z-score),[23],-0.29
same,glycan array binding signal (z-score),[24],-0.241
same,glycan array binding signal (z-score),[25],-0.13
same,glycan array binding signal (z-score),[26],-0.095
same,glycan array binding signal (z-score),[27],-0.272
same,glycan array binding signal (z-score),[28],-0.243
same,glycan array binding signal (z-score),[29],-0.012
same,glycan array binding signal (z-score),[30],-0.265
same,glycan array binding signal (z-score),[31],-0.177
same,glycan array binding signal (z-score),[32],-0.268
same,glycan array binding signal (z-score),[33],-0.285
same,glycan array binding signal (z-score),[34],-0.173
same,glycan array binding signal (z-score),[35],0.379
same,glycan array binding signal (z-score),[36],-0.01
same,glycan array binding signal (z-score),[37],-0.202
same,glycan array binding signal (z-score),[38],-0.151
same,glycan array binding signal (z-score),[39],-0.264
same,glycan array binding signal (z-score),[40],-0.254

# Reference: the supplement of paper PMC8728848
